# Data from ChEMBL document CHEMBL4888484, “Replenishing the malaria drug discovery pipeline: Screening and hit evaluation of the MMV Hit Generation Library 1 (HGL1) against asexual blood stage Plasmodium falciparum ,using a nano luciferase reporter read-out” (2022).
# Out of some 150,000 compounds screened, about 540 (0.36%) showed an effect of 50% or more. Some of the results follow.
# Tested on: Plasmodium falciparum
# Assay: Primary screen in NF54 nanoGlo assay, in single point, at 2uM, 72h; a lower Z score goes with more inhibition
# Assay type: functional, Erythrocyte
# Conditions: timepoint 72 hour
SMILES,% Inhibition,Z score
Cc1nc(CC(=O)N[C@H]2CCOC[C@@H]2Oc2ccc(C#N)cc2)cs1,-7%,0.8
COc1ccc(C)cc1NC(=O)c1ccc(N2CCOCC2)nn1,-6%,0.83
O=C(O)[C@H]1CC(=O)N(CCCCc2ccccn2)C1,-12%,2.17
CCC(=O)N1CCC([C@H](NC(=O)c2ccccc2)C(=O)N2CCCC2)CC1,-14%,2
Cc1nc(C)c(CC(=O)N2CC[C@H]2c2cccs2)s1,-2%,0.2
O=C(Nc1nc(C(F)(F)F)c[nH]1)C1CCCC1,2%,-0.47
Cn1nc(-c2ccc(Cl)cc2)c2cc(C(=O)N3CCN(C4CCCCC4)CC3)sc21,-6%,0.78
COc1c(C)cnc(CN2CCC(N(C)C(=O)[C@H]3CC(=O)N(C)C3)CC2)c1C,0%,0.04
NC(=O)C1CCN(C(=O)c2nccnc2-c2nc3ccccc3s2)CC1,1%,-0.08
Cc1cc(N)n(CC(=O)N[C@@H](C)c2ccc3[nH]ccc3c2)n1,-16%,1.87
O=C(NCCc1nc(-c2ccccc2)no1)C1CCC1,-4%,0.57
C[C@@H](C1CC1)n1nccc1NCc1ccc(F)cc1,28%,-3.16
COc1ccc(OCc2nc(CCN(C)C(=O)CC3CCCC3)no2)cc1,0%,0.06
CN(C)S(=O)(=O)N[C@H]1CCN(C(=O)CCc2ccc(O)cc2)C[C@@H]1O,5%,-0.86
c1ccc2c(NC3CC(N4CCCCC4)C3)ncnc2c1 (stereo unspecified),-3%,0.62
Cc1ccc(C(=O)N(Cc2ccc(-c3cccc(Cl)c3)o2)[C@H]2CCS(=O)(=O)C2)cc1,-4%,0.57
Cc1cccc(C)c1CS(=O)(=O)NC(=O)[C@H]1CCC(C)(C)C1,-15%,1.48
Cc1cccc(Cn2cnc3c2c(=O)n(C[C@H]2CCCO2)c(=O)n3-c2ccccc2)c1,-3%,0.45
CNC(=O)c1cc(N(C)S(=O)(=O)c2cc(C)sc2C)ccn1,-7%,1
Cc1cccc(CN2CCN3CCN(C(=O)NCc4ccco4)CC[C@H]3C2=O)c1,-17%,2.34
Cc1csc(N2CCC(C(=O)N3CCC[C@](C)(CO)C3)CC2)n1,-8%,0.77

SMILES,% Inhibition,Z score
Cc1nc(COCc2ccccc2)n(-c2ccccc2)n1,18%,-2.25
CC1CCN([C@@H]2[C@H](O)[C@H](CO)O[C@@H]2CNC(=O)C2CCCC2)CC1,16%,-1.87
Cc1ccc(S(=O)(=O)N2CCC3(CC[C@H](CN4CCN(C)CC4)O3)CC2)cc1F,-8%,1.03
COc1ccc([C@H]2C[C@H]3CC[C@@H](C2)N3C(=O)CN2CCNC(=O)C2)cc1,0%,-0.01
COCCNC(=O)[C@@H](C)[C@@H]1CCc2c(C)cc(OCCOC)c(C)c2[C@@H]1O,13%,-1.47
COc1ccccc1CC(=O)N1CC(OC[C@H]2CCOC2)C1,7%,-0.94
CCOc1ccc(NC(=O)N(Cc2c(C)nn(-c3cccc(F)c3)c2N2CCN(C(C)C)CC2)C(C)C)cc1,-10%,1.45
OC1(CNc2ccc3cc(Br)ccc3n2)CCOCC1,4%,-0.38
CC[C@H]1COCCN1C(=O)CN1CCCCCCC1,-18%,3.56
Cc1nc(C(C)C)sc1[C@H](C)OC(=O)c1cc(C(N)=O)cn1C,8%,-1.1
CCN(CC)C(=O)[C@@H](NC(=O)c1ccccc1)C1CCN(C(=O)c2ccco2)CC1,-8%,1.07
Cc1cccc(CN2CCC3(CCC(=O)N(C4CC4)C3)CC2)c1,-3%,0.54
CN1C(=O)[C@@H]2CC[C@H]1CN(S(=O)(=O)c1cc(Cl)c(Cl)s1)C2,-8%,1.18
CN(CC1=Cc2cc(Cl)cc(Cl)c2OC1)CC(C)(C)S(C)(=O)=O,-7%,0.95
Cc1ccn(CC(=O)NCc2ccc3c(c2)OCO3)c(=O)c1,-7%,0.9
CCCn1c(=O)sc2cc(NS(=O)(=O)c3ccc(C)c(C)c3)ccc21,2%,-0.25
COc1ccccc1C(C)NC(=O)N(C)CC1CCCC1O (stereo unspecified),12%,-1.29
O=C(Nc1cc(-c2onc3c2CCCC3)ccc1Cl)C(F)(F)C(F)(F)C(F)(F)F,-10%,1.19
CC(C)N1C[C@@H](OCc2ccc(F)cc2)CN(C(=O)c2ccccc2N2CCC(=O)NC2=O)CC1=O,1%,-0.15
O=C(Cn1c2ccccc2c2ncn(Cc3ccccc3)c(=O)c21)Nc1cccc(F)c1,-7%,0.84
CCC(CC)C(=O)NC1CCN(C(C)C)CC1,13%,-1.61

SMILES,% Inhibition,Z score
O=C([C@@H]1COc2ccccc2C1)N1CCCC1,-4%,0.63
CCn1nc(C)c(COc2cccc3c2[C@@H](O)CC(C)(C)O3)n1,5%,-0.65
Cc1ccccc1CNCCOCCO,29%,-3.23
CN(CCCCC1CCOCC1)C[C@@H]1CCCO1,-1%,0.14
O=C(NCc1cc(N2CCOCC2)ncn1)c1cnn2c1CCCC2,-13%,1.18
CC[C@H](NC(=O)C(C)(C)NC(=O)Nc1ccccc1)c1nccs1,-7%,0.97
O=C(Nc1ccccc1)N[C@@H](N1CCOCC1)C(Cl)(Cl)Cl,5%,-0.66
O=C(NCCc1nc(C2CC2)cc(C(F)(F)F)n1)c1ccco1,-15%,1.71
Cc1c(Cl)cc2c(c1Cl)CCCN2C(=O)c1ccc[n+]([O-])c1,9%,-1.19
CC(C)OCc1ccccc1NC(=O)N[C@@]1(C)CCOC1,-7%,0.92
CN1N=C(C(=O)Nc2ccc(N3CCOCC3)nc2)CCC1=O,-3%,0.37
Cc1ncc(CN(C)C(=O)[C@@H]2CCCN2CC(F)(F)F)s1,4%,-0.35
Cc1nn(C(C)C)c(C)c1CN(C)C(=O)[C@@H]1CCCCO1,2%,-0.32
COc1cc(C)ccc1OCCN1CC[C@](C)(O)[C@H](C)C1,-3%,0.51
CC(C)(C)CCC(=O)NCc1cnc2c(c1)CCC2,-2%,0.39
CN(Cc1nc2cc(Cl)ccc2[nH]1)C(=O)CCc1nnc(C2CCCCC2)o1,-5%,0.63
Cc1ccc(CNC(=O)CCNc2c(-c3cccc(F)c3)nc3cnccn23)o1,-18%,2.57
CN(C)S(=O)(=O)N1Cc2ccccc2C1,-18%,2.3
CCn1cc(Br)c(C(=O)NCCc2cn(C)cn2)n1,-7%,1.22
Fc1cccc(CNCc2cc3cc4c(cc3nc2N2CCCC2)OCO4)c1,-10%,1.29
Cc1csc([C@@H]2CN(C(=O)c3c(Cl)c4ccccc4n3C)CCO2)n1,0%,0.03

SMILES,% Inhibition,Z score
CCN1C(=O)[C@@H]2CC3(CCN(C(=O)c4c[nH]c5ccccc45)CC3)CN2C1=O,-4%,0.49
O=C(c1cc(S(=O)(=O)N2CCCC2=O)c(Cl)cc1Cl)N1CCCCC1,1%,-0.21
CC1(C)O[C@H]2[C@@H](O1)[C@@H](C(=O)NCCC(=O)Nc1nccs1)O[C@@H]1OC(C)(C)O[C@@H]12,-16%,2.43
CCCCc1nc(CN(CCc2ccc(OC)c(OC)c2)Cc2ccncc2)c[nH]1,15%,-2.67
C[C@]1(CNC(=O)N2CCC2)CCOC2(CCC2)C1,0%,0.07
COc1ccc(CNC(=O)c2c(O)c3cccc4c3n(c2=O)CC4)cc1,-14%,1.22
Cc1cc(C(=O)N2CCN(CC3CCC3)CC2)c2cccc(Cl)c2n1,-4%,0.81
O=C(CCN1CCCCC1=O)NC[C@H]1CC[C@H](CO)CC1,-20%,2.19
Cc1cccc(C)c1Oc1ncccc1CNC(=O)[C@H]1CC(=O)N(C(C)C)C1,-14%,1.33
CN(CC1(CO)CCCC1)S(=O)(=O)c1cn[nH]c1,-6%,1.27
Cc1noc(C)c1CCC(=O)NC1C2CCCOC2C1(C)C (stereo unspecified),-10%,1.44
O=C(O)c1ccc(C2Nc3ccc(Cl)cc3C3OCCCC23)cc1 (stereo unspecified),-8%,0.97
COC(=O)c1cn(-c2cccc(C(F)(F)F)c2)cc2c(O)nnc1-2,-15%,2.5
COc1ncccc1CCNC(=O)[C@@]12C[C@@H]1COC21CCC1,-8%,0.81
CCCC1(C(=O)O)CCN([C@H]2CCCOC2)CC1,-4%,0.46
C[C@@H](C1CCN(C)CC1)N(C)C(=O)c1ccc(CNC(=O)OC(C)(C)C)o1,-9%,0.98
N#CCN(C1CC1)S(=O)(=O)CC(=O)c1ccccc1,7%,-1.19
C[C@H](NC(=O)c1nc(-c2ccccc2)nn1C)c1ncon1,1%,-0.1
COc1ccc(C(=O)N2CC(C(=O)NCCc3ccccc3)CC(c3ccccc3)C2)cc1 (stereo unspecified),-13%,1.26
COc1cccc(-c2nn([C@@H](C)C(=O)Nc3cccc(Cl)c3C)c(=O)c3noc(C)c23)c1,-9%,0.9
